The record followed here is ChEMBL document CHEMBL4888484, “Replenishing the malaria drug discovery pipeline: Screening and hit evaluation of the MMV Hit Generation Library 1 (HGL1) against asexual blood stage Plasmodium falciparum ,using a nano luciferase reporter read-out” (2022).

For orientation: % Inhibition means the change of the read-out against control, counted positive when it falls.

Screen size: about 150,000 compounds; about 540 (0.36%) showed an effect of 50% or more. This is one part of the list.

The test system of this assay is Plasmodium falciparum. Briefly: Primary screen in NF54 nanoGlo assay, in single point, at 2uM, 72h; a lower Z score goes with more inhibition. The assay is classed as functional, Erythrocyte. To be noted: timepoint 72 hour.
For `COc1ccccc1N1C(=O)[C@@H]2Cc3c([nH]c4ccccc34)CN2C1=O`, the “% Inhibition” value was 0% and the Z score came out at 0.

Turning to `O=C(c1cccc(-n2ccnc2)n1)N1CCN[C@H](c2cccc(Cl)c2)C1`, the “% Inhibition” value is -27% and the Z score is on record as 3.18.

With `C[C@H]1CN(C(=O)C2CCCC2)C[C@@H]1c1nc(-c2ccccc2)no1`, the “% Inhibition” value is on record as -5% and the Z score is listed as 0.58.

As for `COC(=O)Cc1ccc(F)c(-c2ccc(C(=O)N[C@H]3CCNC3=O)cc2)c1`, the “% Inhibition” value is listed as -3% and the Z score was found to be 0.45.

Take `COCc1cc(CNC(C)CC2CCCO2)ccc1F` (centres undefined): the “% Inhibition” value is -3% and the Z score is on record as 0.34.

For the compound `CN(CCc1noc(COc2ccc(Cl)cc2)n1)S(=O)(=O)c1ccccc1`, the “% Inhibition” value is -18% and the Z score was determined as 1.77.

Take `CNC(=O)[C@H]1CCN(S(=O)(=O)c2sccc2Cl)C1`: the “% Inhibition” value is -9% and the Z score came to 1.49.

Turning to `CC(C)NC(=O)CN[C@@H](CO)c1ccc(Cl)c(F)c1`, the “% Inhibition” value is reported as -9% and the Z score is 1.07.

On to `COc1cccc(Cl)c1CN[C@H]1CCCc2occc21`, for which the “% Inhibition” value is given as -24% and the Z score turned out to be 2.8.

For the compound `Cc1cccc2ncnc(N3CCC(N4CCCS4(=O)=O)CC3)c12`, the “% Inhibition” value is 0% and the Z score is on record as 0.04.

`O=C(Nc1ccccc1Cl)N1CC(F)(F)C[C@H]1CN1CCCCCC1`: the “% Inhibition” value is listed as -13% and the Z score is reported as 2.28.

Regarding `Cc1cccnc1N(C(=O)c1ccc(F)cc1)C(=O)c1ccc(F)cc1`, the “% Inhibition” value was 1% and the Z score is -0.17.

As for `Cc1ccc([C@]2(C)NC(=O)N(CC(=O)Nc3cccc(C)c3C)C2=O)o1`, the “% Inhibition” value is 1% and the Z score is -0.09.

For `Cc1ccc(C(=O)[C@@H]2[C@@H]3CCCN3[C@]3(C(=O)Nc4ccc(Cl)cc43)[C@@]23C(=O)Nc2ccccc23)cc1`, the “% Inhibition” value is -6% and the Z score was determined as 0.75.

In the case of `Cn1c(-c2cnn(Cc3ccccc3)c2)nc2cc(Br)ccc21`, the “% Inhibition” value was -3% and the Z score is 0.39.

As for `Cc1ccc(C)n1-c1nc2ccc(C(=O)N[C@@H]3C=CS(=O)(=O)C3)cc2s1`, the “% Inhibition” value was found to be 16% and the Z score is on record as -2.15.

Take `Cc1n[nH]c(C)c1CN(C)C[C@H]1CCCN(Cc2ccco2)C1`: the “% Inhibition” value was -10% and the Z score came to 1.51.

Regarding `CCCn1cc(CNc2nnc(C(F)F)s2)cn1`, the “% Inhibition” value is -11% and the Z score amounted to 1.67.

For `Cc1ccc(Cl)c(NC(=O)N(C)C[C@H]2CC(=O)N(C(C)(C)C)C2)c1`, the “% Inhibition” value is on record as -10% and the Z score is recorded as 0.93.

`O=S1(=O)CCCC1CNC(c1ccc(F)cc1)c1ncc[nH]1` (centres undefined): the “% Inhibition” value is -15% and the Z score turned out to be 1.7.

For the compound `Cc1nc([C@H](NC(=O)CCc2nc(-c3ccsc3)no2)c2ccccc2)n[nH]1`, the “% Inhibition” value is listed as -5% and the Z score was determined as 0.77.

As to `CN(CCS(=O)(=O)NCC1CCCCC1)S(=O)(=O)c1cccs1`, the “% Inhibition” value was -8% and the Z score was found to be 1.2.

Consider `CCc1c(C(=O)N2C[C@H](N)C[C@H]2C(=O)NC(C)C)csc1C`, for which the “% Inhibition” value is recorded as -25% and the Z score came out at 3.41.

In the case of `COc1ccccc1-c1noc2ncnc(N(C)Cc3ccco3)c12`, the “% Inhibition” value was -7% and the Z score came out at 0.85.

Regarding `Cc1nnc(NCCCc2csc(N)n2)o1`, the “% Inhibition” value is listed as -4% and the Z score came out at 0.7.

On to `CC1=NN(c2ccc(C(=O)NC[C@H]3CCCCN(Cc4ccccc4)C3)cc2)CC1`, for which the “% Inhibition” value is -4% and the Z score was determined as 0.5.

Take `O=S(=O)(Nc1nnc2[nH]cnn12)c1ccc2c(c1)CCCC2`: the “% Inhibition” value was 3% and the Z score is recorded as -0.36.

As to `COc1ccc(-c2nccn2CCS(C)(=O)=O)c2ccccc12`, the “% Inhibition” value was -11% and the Z score amounted to 1.61.

As to `COc1ccc(NS(=O)(=O)c2cc(-c3ccn[nH]3)cs2)cc1F`, the “% Inhibition” value is recorded as -4% and the Z score stood at 0.72.

For `CN(C)C(=O)[C@H](Nc1cccc2c1CCCC2)c1ccccc1`, the “% Inhibition” value is listed as -9% and the Z score was 1.77.

For `COc1cccc(-c2ccc(N3CCCN(C(=O)CN(C[C@H]4CCCO4)C(=O)C4CCC4)CC3)nn2)c1`, the “% Inhibition” value is given as -3% and the Z score is given as 0.44.

For the compound `O=C1[C@H](c2cccnc2)N(CCCc2ccccc2)C(=O)CN1c1ccccc1`, the “% Inhibition” value was found to be 40% and the Z score is listed as -4.49.

On to `Cc1oc2ncnc(N3CCC(C(=O)NCCc4ccco4)CC3)c2c1C`, for which the “% Inhibition” value was -4% and the Z score is recorded as 0.44.

On to `Cc1ccccc1OC[C@H](C)NC(=O)NC1(C(N)=O)CCCC1`, for which the “% Inhibition” value was -24% and the Z score was found to be 2.43.

In the case of `COc1ncnc(C)c1-c1cccc(C(=O)N2CCCN(C(C)=O)CC2)c1`, the “% Inhibition” value was -6% and the Z score worked out at 1.06.

As to `CCN1C(=O)CO[C@H](c2nc(-c3ncccn3)no2)[C@H]1c1ccccc1`, the “% Inhibition” value was -7% and the Z score came out at 0.9.

Turning to `Cc1cnn(CCNC(=O)[C@H](C)N2CCN(C)CC2)c1`, the “% Inhibition” value is 18% and the Z score is -1.75.

As to `Cn1c2c(c(=O)n(C)c1=O)[C@H](c1ccc(OCc3ccccc3)cc1)NC(=O)N2`, the “% Inhibition” value was -4% and the Z score was 0.53.

As to `CCCN(CC(=O)N1CCN(c2ccc(-c3ccc(OC)c(OC)c3)nn2)CC1)C(=O)c1ccc2c(c1)OCO2`, the “% Inhibition” value is recorded as -6% and the Z score is given as 0.64.

With `Cc1ccc(/N=C2\CCCN2C)c(C#N)c1`, the “% Inhibition” value was -3% and the Z score stood at 0.34.

As to `CC(C)N(C)C(=O)c1nn(C)c2c1COCC2`, the “% Inhibition” value is reported as 0% and the Z score was 0.06.

For the compound `COCC1(CNC(=O)N2CCC([C@@H](O)CCc3ccccc3)CC2)CCC1`, the “% Inhibition” value is -2% and the Z score turned out to be 0.36.
